# Test results reported in article PMC5700166.
# This is a selection; strong and weak results do not stand in their true shares. The list includes weakly bound sequences.
# Target: T1, GST-Co-NF-kB (UniProt F1ARL5)
# T1 sequence: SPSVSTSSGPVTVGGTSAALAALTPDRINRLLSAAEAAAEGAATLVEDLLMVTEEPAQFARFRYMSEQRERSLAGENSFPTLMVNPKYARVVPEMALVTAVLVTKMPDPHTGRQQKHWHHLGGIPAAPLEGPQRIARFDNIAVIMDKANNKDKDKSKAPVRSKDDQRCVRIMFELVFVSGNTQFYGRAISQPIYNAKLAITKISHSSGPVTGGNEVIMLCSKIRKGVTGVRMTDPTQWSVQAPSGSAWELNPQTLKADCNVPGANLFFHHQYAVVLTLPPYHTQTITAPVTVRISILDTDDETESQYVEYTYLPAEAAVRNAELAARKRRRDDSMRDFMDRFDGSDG
# Test: protein-binding microarray (PBM)
# Details: PBM: ~300 nM protein, 6 mM HEPES pH 7.8, 80 mM KCl, 0.5 mM EDTA, 0.5 mM EGTA, 6% glycerol, 35 ng/ul poly-dIdC, 1% milk, 1 h, room temperature; Ap Aiptasia and Nv Nematostella (sea anemones) / Co Capsaspora / Aq Amphimedon (sponge) / Dm Drosophila / Hu human; RHD is the Rel homology domain; high values mean tight binding; most listed sequences are background and not binding sites; double strand, one strand shown
row,Sequence,binding signal
1,CCGATTAACATCAGGGGAAATACTGATGTTAATCGGGTCTTGATTCGCTTGACGCTGCTG,8.2 z-score
2,CCGATTAACATCACCCGATTCCCTGATGTTAATCGGGTCTTGATTCGCTTGACGCTGCTG,2.5 z-score
3,CCGATTAACATCAGAGAAGCCCCTGATGTTAATCGGGTCTTGATTCGCTTGACGCTGCTG,0.0981 z-score
4,CCGATTAACATCAAGGGGGGGTATGATGTTAATCGGGTCTTGATTCGCTTGACGCTGCTG,5.09 z-score
5,CCGATTAACATCAAATTCCCAATTGATGTTAATCGGGTCTTGATTCGCTTGACGCTGCTG,2.62 z-score
6,CCGATTAACATCAGGAAATGCCCTGATGTTAATCGGGTCTTGATTCGCTTGACGCTGCTG,0.242 z-score
7,CCGATTAACATCACTGTTTTCCCTGATGTTAATCGGGTCTTGATTCGCTTGACGCTGCTG,4.9 z-score
8,CCGATTAACATCACCAAATCCCCTGATGTTAATCGGGTCTTGATTCGCTTGACGCTGCTG,3.02 z-score
9,CCGATTAACATCAAAATACCCCCTGATGTTAATCGGGTCTTGATTCGCTTGACGCTGCTG,7.21 z-score
10,CCGATTAACATCAGAAAGCCCCCTGATGTTAATCGGGTCTTGATTCGCTTGACGCTGCTG,2.16 z-score
11,CCGATTAACATCAGGGGACAACCTGATGTTAATCGGGTCTTGATTCGCTTGACGCTGCTG,3.44 z-score
12,CCGATTAACATCAAGGGGGTCCCTGATGTTAATCGGGTCTTGATTCGCTTGACGCTGCTG,0.797 z-score
13,CCGATTAACATCAATTTCCCCCATGATGTTAATCGGGTCTTGATTCGCTTGACGCTGCTG,10.7 z-score
14,CCGATTAACATCAAGGTAATTCCTGATGTTAATCGGGTCTTGATTCGCTTGACGCTGCTG,0.332 z-score
15,CCGATTAACATCAACACCCCCCCTGATGTTAATCGGGTCTTGATTCGCTTGACGCTGCTG,5.33 z-score
16,CCGATTAACATCAGGGGGTTGCATGATGTTAATCGGGTCTTGATTCGCTTGACGCTGCTG,2.22 z-score
17,CCGATTAACATCAAGGGGAAATCTGATGTTAATCGGGTCTTGATTCGCTTGACGCTGCTG,7.59 z-score
18,CCGATTAACATCAGGATAATCCCTGATGTTAATCGGGTCTTGATTCGCTTGACGCTGCTG,1.51 z-score
19,CCGATTAACATCAAATAAACCCCTGATGTTAATCGGGTCTTGATTCGCTTGACGCTGCTG,2.32 z-score
20,CCGATTAACATCATTAGGGGAAGTGATGTTAATCGGGTCTTGATTCGCTTGACGCTGCTG,3.41 z-score

row,Sequence,binding signal
1,CCGATTAACATCAATCTCCCCCCTGATGTTAATCGGGTCTTGATTCGCTTGACGCTGCTG,8.72 z-score
2,CCGATTAACATCAGACTTCCCCATGATGTTAATCGGGTCTTGATTCGCTTGACGCTGCTG,4.24 z-score
3,CCGATTAACATCAGAAATCCCCATGATGTTAATCGGGTCTTGATTCGCTTGACGCTGCTG,4.52 z-score
4,CCGATTAACATCAGAATTGCCCCTGATGTTAATCGGGTCTTGATTCGCTTGACGCTGCTG,1.95 z-score
5,CCGATTAACATCACGGGGTTCCCTGATGTTAATCGGGTCTTGATTCGCTTGACGCTGCTG,2.51 z-score
6,CCGATTAACATCACATTTCCCCCTGATGTTAATCGGGTCTTGATTCGCTTGACGCTGCTG,9.84 z-score
7,CCGATTAACATCAGGGGAATACATGATGTTAATCGGGTCTTGATTCGCTTGACGCTGCTG,6.18 z-score
8,CCGATTAACATCACGCAACCCCCTGATGTTAATCGGGTCTTGATTCGCTTGACGCTGCTG,2 z-score
9,CCGATTAACATCACGGGAACACCTGATGTTAATCGGGTCTTGATTCGCTTGACGCTGCTG,1.95 z-score
10,CCGATTAACATCAAAACACCCCTTGATGTTAATCGGGTCTTGATTCGCTTGACGCTGCTG,2 z-score
11,CCGATTAACATCAACGCCCCCCCTGATGTTAATCGGGTCTTGATTCGCTTGACGCTGCTG,4.15 z-score
12,CCGATTAACATCACACCCCCCCGTGATGTTAATCGGGTCTTGATTCGCTTGACGCTGCTG,4.58 z-score
13,CCGATTAACATCACCGTTCCCCCTGATGTTAATCGGGTCTTGATTCGCTTGACGCTGCTG,6.76 z-score
14,CCGATTAACATCAAGGGGGAAAATGATGTTAATCGGGTCTTGATTCGCTTGACGCTGCTG,9.03 z-score
15,CCGATTAACATCAAGGGAAGCCCTGATGTTAATCGGGTCTTGATTCGCTTGACGCTGCTG,0.502 z-score
16,CCGATTAACATCACGGAATACCCTGATGTTAATCGGGTCTTGATTCGCTTGACGCTGCTG,1.67 z-score
17,CCGATTAACATCACCGGGAATTCTGATGTTAATCGGGTCTTGATTCGCTTGACGCTGCTG,5.5 z-score
18,CCGATTAACATCAATGCCCCCCCTGATGTTAATCGGGTCTTGATTCGCTTGACGCTGCTG,5.03 z-score
19,CCGATTAACATCAGACCTTCCCCTGATGTTAATCGGGTCTTGATTCGCTTGACGCTGCTG,4.12 z-score
20,CCGATTAACATCAGGGGGTATTATGATGTTAATCGGGTCTTGATTCGCTTGACGCTGCTG,4.88 z-score
